# Some of the results follow. Further columns of the screen follow, without active or inactive calls.
# Assay: Plasmodium liver-stage growth inhibition, dose response, imaging, Malaria Box, P. yoelii, HepG2-A16-CD81EGFP (AID 602156);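 note: infected cells exposed to compound for 48 hours before fixation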
# Details: P. yoelii liver stage in HepG2-A16-CD81EGFP, measured here: liver parasite size at 10 uM
row,SMILES,parasite size
1,CCN(CC)c1ccc(NC(=O)c2cccs2)cc1,54.1 um
2,CCOC(=O)C1=C(c2ccccc2)N=c2sc(=Cc3cc(C)n(-c4ccc(F)cc4)c3C)c(=O)n2C1c1cccc(OC)c1OC (centres undefined),106 um
3,Cc1ccc(Nc2nc(NCc3ccccc3)c3ccccc3n2)cc1,31.7 um
4,C[C@@H]1CCC[C@@H](C[C@H]2Cc3cc(O)cc(O)c3C(=O)O2)O1,42 um
5,COc1ccc(C(NC(=O)c2cccnc2)c2cc(Cl)c3cccnc3c2O)cc1 (centres undefined),21.1 um
6,COC(=O)c1c(-c2c(Cl)cccc2Cl)noc1NC(=O)NN1CCCCC1,75.7 um
7,COc1ccc(-c2c(C(F)(F)F)nn(C)c2NC(=O)Nc2ccc(F)cc2F)cc1,103 um
8,Oc1c(C(Nc2ccccn2)c2cccc(Cl)c2Cl)ccc2cccnc12 (centres undefined),23.8 um
9,Cc1[nH]c2ccccc2c(=O)c1CC=C(Cl)Cl,43.2 um
10,S=C(NN=Cc1ccccn1)NC1CC2CC1C1C=CCC21 (centres undefined),27.4 um
11,O=c1c2ccccc2[nH]c2ccc(I)cc12,24.9 um
12,CC(=O)Nc1nc(C)c(-c2csc(Nc3ccc(C)cc3)n2)s1,104 um
13,CCCCCC[n+]1ccccc1/C=C/c1ccc(N(C)C)cc1,16.8 um
14,O=c1c2c([nH]c3ccccc13)CCCCCCCCCC2,25.1 um
15,Cc1ccc(C2Sc3ccccc3NC3=C2C(=O)c2ccccc23)cc1 (centres undefined),27 um
16,Brc1ccc(-c2c[n+]3c(n2-c2ccccc2)SCC3)cc1,78.7 um
17,COc1ccc(CN2CCOc3ccc(C(C)(O)CN(C)C)cc3C2)cc1C (centres undefined),87 um
18,COc1cccc(Nc2nc(NCCO)c3ccccc3n2)c1,54.9 um
19,COC(OC)C(C)=NNC(N)=S,78.8 um
20,Oc1cccc2ccc[n+](CC(O)Cn3c4ccccc4c4ccccc43)c12 (centres undefined),49.4 um
21,CCCCCCOc1ccc(NC(=O)c2cccs2)cc1,27.9 um
22,CC(=O)N(C1=C(N2CCOCC2)C(=O)c2ccccc2C1=O)c1ccc(I)cc1,50.1 um
23,CCN(CC)CCN(Cc1cc2ccc(C)cc2[nH]c1=O)C(=S)NC(C)c1ccccc1 (centres undefined),66.2 um
24,Cc1cc(N)c2ccccc2[n+]1CCCCCCCCCC[n+]1c(C)cc(N)c2ccccc21,40.3 um
25,Cc1ccc(-c2[nH]n3c(=O)c4c(nc3c2C)CCCC4)cc1,28.7 um
26,CC(Oc1ccc(Cl)cc1Cl)c1nc(-c2ccc(NC(=O)c3ccco3)cc2)no1 (centres undefined),28.2 um
27,CCCCNC(=O)C(CC)Sc1nnc(-c2ccc(C)cc2)c(-c2ccc(C)cc2)n1 (centres undefined),31 um
28,Cc1cccc(NC(=S)NC2CC3CCCC(C2)N3CCc2ccccc2)c1 (centres undefined),67.7 um
29,COc1cc(C(=O)N2N=C(c3c(-c4ccccc4)c4cc(Br)ccc4[nH]c3=O)CC2c2cccc([N+](=O)[O-])c2)cc(OC)c1OC (centres undefined),29.4 um
